Data: publication PMC4336329 (PLoS ONE, 2015)
The whole screen tested about 310,000 compounds, of which about 14,000 (4.5%) showed an effect of 50% or more. The effect is printed as a negative number. This is one part of the list.

What follows are molecules tested against human ether-à-go-go-related gene (hERG) potassium channel (human, UniProt Q12809) (assay: primary screen, population patch clamp on CHO cells stably expressing hERG).
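Also: peak tail current of the secondary pulse compared with the same well before compound.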

Sequence of human ether-à-go-go-related gene (hERG) potassium channel (Q12809 whole entry, looked up): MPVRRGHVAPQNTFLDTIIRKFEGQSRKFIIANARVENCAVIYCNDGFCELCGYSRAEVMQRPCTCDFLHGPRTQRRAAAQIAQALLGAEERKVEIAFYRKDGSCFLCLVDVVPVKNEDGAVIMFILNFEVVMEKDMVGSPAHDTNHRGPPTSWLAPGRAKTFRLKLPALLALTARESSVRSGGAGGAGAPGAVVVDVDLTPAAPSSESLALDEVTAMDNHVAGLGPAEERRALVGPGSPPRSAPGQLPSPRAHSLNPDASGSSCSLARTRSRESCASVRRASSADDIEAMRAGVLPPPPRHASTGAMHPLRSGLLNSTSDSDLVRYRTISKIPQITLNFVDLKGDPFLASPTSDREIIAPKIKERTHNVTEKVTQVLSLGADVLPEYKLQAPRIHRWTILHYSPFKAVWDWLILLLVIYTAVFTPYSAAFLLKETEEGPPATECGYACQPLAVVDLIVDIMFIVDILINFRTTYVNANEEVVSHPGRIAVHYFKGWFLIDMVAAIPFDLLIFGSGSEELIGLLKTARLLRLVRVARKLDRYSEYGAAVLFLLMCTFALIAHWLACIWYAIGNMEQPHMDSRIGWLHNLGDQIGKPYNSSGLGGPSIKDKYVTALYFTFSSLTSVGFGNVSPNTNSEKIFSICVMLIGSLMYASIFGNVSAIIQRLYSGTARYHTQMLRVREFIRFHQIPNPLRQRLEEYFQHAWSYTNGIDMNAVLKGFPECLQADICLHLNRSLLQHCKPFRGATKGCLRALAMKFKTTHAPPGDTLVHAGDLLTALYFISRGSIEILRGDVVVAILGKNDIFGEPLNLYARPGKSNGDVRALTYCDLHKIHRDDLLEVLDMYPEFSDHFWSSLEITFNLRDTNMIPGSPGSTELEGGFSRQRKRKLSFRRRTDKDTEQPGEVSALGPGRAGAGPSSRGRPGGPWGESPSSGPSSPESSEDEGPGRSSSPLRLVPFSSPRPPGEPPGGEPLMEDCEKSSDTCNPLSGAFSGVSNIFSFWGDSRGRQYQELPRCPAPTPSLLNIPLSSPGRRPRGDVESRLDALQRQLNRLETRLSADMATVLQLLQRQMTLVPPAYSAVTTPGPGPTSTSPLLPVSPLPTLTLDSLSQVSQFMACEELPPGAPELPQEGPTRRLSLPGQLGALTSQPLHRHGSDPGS

| Structure (SMILES) | hERG current change (%, negative = inhibition) at 10uM |
| --- | --- |
| Cc1cc2c(=O)n(CC(=O)NCC(=O)Nc3ccc(C(C)C)cc3)cnc2s1 | 13.1% |
| CC(=O)Nc1cccc(N2C(=O)CC(N3CCC(C(=O)N4CCCCC4)CC3)C2=O)c1 (stereo not shown) | 17% |
| CCOC(=O)CC1C(=O)NCCN1C(=O)COc1ccc(C(C)(C)C)cc1 (stereo not shown) | -2.65% |
| COc1ccc(/C=N/NC(=O)c2ccn[nH]2)cc1COc1ccc(Cl)cc1 | 2.09% |
| Cc1cc(=O)[nH]c2nnc(-c3ccc(Br)cc3)n12 | 5.99% |
| O=C1c2nccnc2C(=O)N1c1ccc(C(F)(F)F)cc1 | 36.3% |
| Cc1csc(Sc2nc3c(c(=O)[nH]c(=O)n3C)n2Cc2ccccc2Cl)n1 | -12.1% |
| Cc1cccc(-c2nc(CC(=O)Nc3cccc(S(=O)(=O)NC4=NCCC4)c3)cs2)c1 | -3.56% |
| O=c1oc2ccccc2c(Nc2ccc(F)cc2)c1[N+](=O)[O-] | -9.49% |
| CCOC(=O)c1ccc(NC(=S)NCCCN2CCOCC2)cc1 | 41.4% |
| O=C(CCN1CCCO1)NC1CCCc2c1cnn2-c1ccccc1F (stereo not shown) | 20.7% |
| O=C(Nc1ccccc1Cl)NC1(C(=O)NCCCN2CCOCC2)CCCCC1 | 4.9% |
| CC(=O)Nc1cccc(C(=O)OCC(=O)NNC(=O)c2ccc([N+](=O)[O-])cc2)c1 | -6.28% |
| CCCc1cc(=O)[nH]c(SCC(=O)c2cc(C)n(C)c2C)n1 | -6.04% |
| COc1cccc(O[C@@H]2O[C@@H]3COC(C)(C)O[C@H]3[C@H](O)[C@H]2NC(C)=O)c1 | -3.8% |
| COC(=O)c1ccsc1NC(=O)CSc1nnnn1Cc1ccccc1 | -9.26% |
| O=C(OCc1ccccc1Cl)c1ccccc1C(=O)c1ccccc1 | -2.97% |
| O=C(C1=NN[C@@H]2C(=O)N(c3cccc(F)c3)C(=O)[C@H]12)C(c1ccccc1)c1ccccc1 | -19.2% |
| CCOc1ccc(/C(O)=C2/C(=O)C(=O)N(CC3CCCO3)C2c2ccc(C)o2)cc1 (stereo not shown) | 9.85% |
| OC1(c2ccc(F)cc2)CCN(Cc2nnnn2Cc2cccs2)CC1 | -28.7% |
| Cc1[nH]c2ccccc2c1C(=O)NS(=O)(=O)Nc1ccccc1 | 9.15% |
| Cc1ccc(CN(C(=O)c2sc3ccccc3c2Cl)C2CCS(=O)(=O)C2)cc1 (stereo not shown) | -3.31% |

| Structure (SMILES) | hERG current change (%, negative = inhibition) at 10uM |
| --- | --- |
| CCC(=O)NCCNc1ccc([N+](=O)[O-])cn1 | -1.79% |
| CCOc1ccc(-c2nc(-c3ccc(OC)cc3)no2)cc1OCC | 15.3% |
| COCCNC(=O)c1onc(CCl)c1C(=O)OC | 5.37% |
| Cc1cccc(C(=O)Nc2nnc(SCC(=O)Nc3ccc4c(c3)oc3ccccc34)s2)c1 | 23.5% |
| Cc1cc(NC(=O)c2ccc(Cn3cc([N+](=O)[O-])cn3)o2)no1 | 5.01% |
| CCOC(=O)C1=C(C)N(CC(C)C)C(=O)/C1=C\c1cccs1 | 16.4% |
| COc1ccccc1NC(=O)c1cc(S(=O)(=O)N2CCCC2)cn1C | -19.8% |
| COc1cccc(/C=N/Nc2cc(-n3nc(C)cc3-c3ccccc3)ncn2)c1O | 7.09% |
| COc1ccc(Cc2noc(CN3CCCN(C4Cc5ccccc5C4)CC3)n2)cc1OC | -67% |
| Cc1ccc(-n2c(SCC(=O)N3c4ccccc4Sc4ccccc43)nnc2-c2ccncc2)cc1 | -3.06% |
| COc1ccc(S(=O)(=O)Nc2ccc(Oc3ncccn3)c(Cl)c2)cc1 | -13.3% |
| CC1(C)NC(=O)N(CC(=O)N2CCC(Cc3ccccc3)CC2)C1=O | -19% |
| CCCN(CCC)Cc1c(C(=O)N/N=C/c2ccco2)nnn1-c1nonc1N | -5.99% |
| COc1ccc(C)cc1NC(=O)COC(=O)C1CCN(C(=O)c2ccc(Cl)cc2)CC1 | -79.1% |
| COc1cc(NC(=O)Nc2cccc(C(C)=O)c2)cc(OC)c1OC | -14.4% |
| CCOc1ccc(-c2nnc(NC(=O)C3CCCC3)o2)cc1 | 12.3% |
| O=C(COc1ccc(Cl)cc1)NC1=NN(c2ccccc2)C(=O)C1 | -4.52% |
| CC(C)C(=O)Nc1cccc(NC(=O)CCN2C(=O)c3ccccc3S2(=O)=O)c1 | -1.86% |
| CC(=O)c1ccc(S(=O)(=O)N(C)CC(=O)Nc2ccc(C)cc2)cc1 | -0.949% |
| O=C(NCc1ccco1)C(c1ccc(F)cc1)N(CC1CCCO1)C(=O)Cn1nnc2ccccc21 (stereo not shown) | -0.232% |
| C=C(C)Cn1c(C)cc(C)c(S(=O)(=O)c2cccc(C)c2)c1=O | -3.17% |
| O=C(Cc1ccc(S(=O)(=O)N2CCOCC2)s1)NCCc1ccc(F)cc1 | -12.2% |

| Structure (SMILES) | hERG current change (%, negative = inhibition) at 10uM |
| --- | --- |
| O=C(O)CSc1nnnn1-c1ccc2c(c1)OCCO2 | -12.5% |
| CCOC(=O)c1[nH]c2ccccc2c1CCCN1C(=O)c2ccccc2C1=O | -11.9% |
| Cc1ccccc1C(=O)N1CCC(C(=O)Nc2nc3ccc(F)cc3s2)CC1 | -42.8% |
| Nc1cc(Cl)ccc1C(=O)OCC(=O)NC1CCCCC1 | 35.7% |
| N[C@@H](Cc1c[nH]c2ccc(O)cc12)C(=O)O | 9.57% |
| CC(C)N1C(=O)C(=O)N(CC(=O)N(C)c2ccccc2)C1=O | 2.89% |
| Cc1c(C(=O)NN)sc(-c2ccccc2)c1C#N | 5.38% |
| CCOC(=O)c1c(C)n(C)c2ccc(OCC(O)CN3CCC(C)CC3)cc12.Cl (stereo not shown) | -15.8% |
| CC(C)C(=O)Nc1cccnc1 | 17.3% |
| O=C(Cn1cnc([N+](=O)[O-])n1)N/N=C/c1cccc(Cl)c1 | 4.41% |
| O=C(Cc1c(C(=O)O)[nH]c2ccccc12)NCCN1CCN(c2cccc(Cl)c2)CC1 | 4.19% |
| Cc1nnc(NC(=O)CSc2nnc(Cc3cccn3C)n2C)s1 | 3.54% |
| CCOC(=O)/C=C(\C)Sc1cc(=O)oc2ccccc12 | -40.4% |
| COc1ccccc1CNC(=O)C(C)NS(=O)(=O)c1ccc(C)cc1 (stereo not shown) | 10.8% |
| O=C(c1ccncc1)N1CCN(c2cccc(C(F)(F)F)c2)CC1 | -20% |
| Cc1ccccc1C(=O)NC1CCN(Cc2nnnn2Cc2ccccc2)CC1 | -47.8% |
| Cc1ccc(Nc2nc(C)cc(C)c2C(N)=O)c(C)c1 | 17.1% |
| Cc1ccc(/C=N/N(C)C2=NS(=O)(=O)c3ccccc32)o1 | 20.7% |
| O=c1cc(CN2CC(O)Cc3ccc4ccccc4c32)nc2sccn12 (stereo not shown) | -15.3% |
| Cc1c(C(=O)NC2CC2)oc2ccccc12 | 2.65% |
| CN(Cc1ccccc1)C1CCN(Cc2ccccc2[N+](=O)[O-])CC1.O=C(O)C(=O)O | -59.6% |
| CCCNC(=O)c1ccc2c(c1)CCN2S(C)(=O)=O | 12.8% |

| Structure (SMILES) | hERG current change (%, negative = inhibition) at 10uM |
| --- | --- |
| COc1ccc(C2CC(=O)C=C(NCCC(C)C)C2)cc1 (stereo not shown) | -73.2% |
| O=C(NCCN1CCOC1=O)C1CCC(=O)N(CCc2ccc(Cl)cc2)C1 (stereo not shown) | -4.72% |
| Cc1cc(O)c(/C=N/OCc2ccc(Cl)cc2Cl)c(=O)o1 | 23.5% |
| CCOC(=O)c1sc(C)c(C(=O)NC2CCCCC2)c1N | -4.79% |
| Brc1ccc(-c2csc(N3CCc4ccccc4C3)n2)cc1 | 13.4% |
| CC(C)(C)N(Cc1ccccc1)C(=O)CSc1nnc(CNc2ccc(F)cc2)o1 | 1.12% |
| O=C(CNC(=O)c1ccc(Br)o1)NC1CCCCCC1 | -6.85% |
| CCn1c(=O)n(CC(=O)N2CCN(c3ccccc3F)CC2)c(=O)c2ccccc21 | -14.4% |
| CCc1cc2c(=O)[nH]c(-c3ccncc3)nc2s1 | 7.03% |
| COc1ccc2nc(Nc3nc(-c4cc5ccccc5oc4=O)cs3)sc2c1 | 9.3% |
| CN(C)c1ccc(-c2n[nH]c(=S)n2-c2ccccc2)cc1 | 17.5% |
| CCOc1c(OC(C)=O)ccc(/C=C/c2ccc3cccc(OC)c3n2)c1[N+](=O)[O-] | 2.88% |
| COC(=O)C1C(=O)C2=C(CC1C)NC(=O)CC2c1ccc(O)c(OC)c1 (stereo not shown) | 9.72% |
| Cc1ccc(O)c(/C=N/NC(=O)Cc2ccc(Cl)cc2)c1 | 10.5% |
| COC(=O)c1ccc(CSc2nnc(CNC(=O)c3cccs3)o2)o1 | 7.99% |
| CCCCCCCCCc1nc(N)n[nH]1 | -1.04% |
| Cc1onc(-c2ccccc2Cl)c1C(=O)OCC(=O)N1CCN(c2ccccc2)CC1 | -16.1% |
| CN(C)S(=O)(=O)c1ccc(N/C=C(\[N+](=O)[O-])S(=O)(=O)c2ccccc2)cc1 | 15.2% |
| COc1ccc(Cc2nnc(NCCO)[nH]c2=O)cc1OC | 18.1% |
| Cn1c(C(=O)N2CCCC(C(=O)N3CCN(C(=O)c4ccco4)CC3)C2)cc2sccc21 (stereo not shown) | -30.1% |
| COc1cc(-c2nnc3sc(Cc4ccccc4)nn23)cc(OC)c1OC | -4.77% |
| CCc1nc2c(nnn2Cc2ccc(F)cc2)c(=O)[nH]1 | -3.71% |
